Screen size: about 150,000 compounds; about 540 (0.36%) showed an effect of 50% or more. Some of the results follow.

This assay deals with Plasmodium falciparum. Put plainly: Primary screen in NF54 nanoGlo assay, in single point, at 2uM, 72h; a lower Z score goes with more inhibition. The class given is functional, Erythrocyte. The following applies: timepoint 72 hour.
A word on the % Inhibition: it is the relative decrease from the control value, in per cent. Consider `Cc1nn(CC(N)=O)c(C)c1-c1ccc2[nH]ccc2c1`, for which the “% Inhibition” value is listed as -14% and the Z score was 1.91.
In the case of `O=S(=O)(c1ccc(-c2ccc(Br)cc2)cc1)N1CCCCC1`, the “% Inhibition” value worked out at 3% and the Z score is on record as -0.39.
In the case of `Cc1cc(NC(=O)Cn2ncn(C)c2=O)no1`, the “% Inhibition” value is given as -2% and the Z score worked out at 0.22.
On to `Cc1cc(C(=O)Nc2nc(-c3ccc(Oc4ccccc4)cc3)cs2)on1`, for which the “% Inhibition” value was -1% and the Z score is given as 0.25.
For `CC(=O)c1ccc(C#N)c(N2CCC[C@H](c3nc(C)no3)C2)c1`, in that order: -13% and 1.19.
The like results for `CO[C@@H](C)CS(=O)(=O)Nc1cc(C#N)cc(C)n1` were, in that order, -4% and 0.73.
The like results for `Cc1cc(-c2ccccc2)cc(-c2ccccc2)c1-c1cc(-c2ccccc2)cc(-c2ccccc2)n1` were, in that order, 40% and -5.16.
In the case of `CCc1noc(C)c1C(=O)N1CCO[C@H](c2nnnn2CCOC)C1`, the “% Inhibition” value is given as -5% and the Z score is given as 0.94.
The like results for `Cn1cnc2c(NCc3ccc(C(N)=O)o3)ncnc21` were, in that order, -6% and 1.08.
`O=C(NCc1ccncc1)c1ccc(CN2CCN(c3ccccc3)CC2)o1`: the “% Inhibition” value is on record as -15% and the Z score worked out at 1.77.
For `O=C(Nc1ccc(N2CCCN(Cc3cccc(Cl)c3F)C2=O)cc1)c1ccc(F)cc1`, in that order: -14% and 2.02.
For `N#Cc1ccccc1-c1ccc(CN2CCN(c3ncc(F)cn3)CC2)o1`, in that order: 5% and -0.63.
The like results for `CC(=O)N1CC2=Nc3cccc4[nH]cc(c34)[C@H](c3ccc(O)cc3)C2=C1O` were, in that order, 1% and -0.15.
For `CN(C)C[C@]1(O)CCCN(C(=O)c2sccc2Cl)CC1`, the “% Inhibition” value is reported as -7% and the Z score was found to be 1.36.
On to `Cc1ccc(N(C)C(=O)[C@@H]2CCC(=O)N2S(=O)(=O)c2ccc(C)cc2)cc1`, for which the “% Inhibition” value is -12% and the Z score is reported as 1.68.
Turning to `Cc1nnsc1C(=O)N1C[C@@H]2CC[C@H]1CN(C(=O)C1CCC1)C2`, the “% Inhibition” value is on record as -3% and the Z score was found to be 0.56.
On to `COC(CN1CCC[C@H](NC(=O)c2ccc3ccccc3c2)C1)OC`, for which the “% Inhibition” value is -6% and the Z score is recorded as 0.87.
In the case of `Cc1ccc2sc(-c3nc4c([nH]3)CCNC4)cc2c1`, the “% Inhibition” value came to 2% and the Z score is given as -0.39.
Take `COc1ccc(Cl)cc1C(=O)Nc1ccc2c(c1)C(=O)NCCO2`: the “% Inhibition” value is reported as 20% and the Z score is reported as -3.7.
The like results for `COc1ccc2c(c1)CCC[C@@]2(O)CNC(=O)c1cc(C)oc1C` were, in that order, -14% and 1.73.
The like results for `O=C(c1ccco1)N(Cc1ccccc1Br)c1ccccc1Br` were, in that order, -3% and 0.55.
On to `Nc1nnc(Cc2ccc3c(c2)OCCO3)o1`, for which the “% Inhibition” value is listed as -13% and the Z score was determined as 1.86.
For `CCOc1ccc(S(=O)(=O)N2CCC(n3ccnn3)CC2)cc1`, the “% Inhibition” value was -10% and the Z score was determined as 1.49.
For `CC(C)CN(CC(N)=O)S(=O)(=O)c1ccc(Br)cc1Br`, the “% Inhibition” value is -12% and the Z score is 2.34.
In the case of `O=C(NC(=O)c1cnn([C@H]2CCS(=O)(=O)C2)c1)Nc1ccccc1`, the “% Inhibition” value is listed as -10% and the Z score is 1.18.
For the compound `O=C(NCC1CCCCC1)C1CCN(S(=O)(=O)c2ccc(-c3ccn[nH]3)o2)CC1`, the “% Inhibition” value amounted to 0% and the Z score is given as -0.03.
Consider `Cc1cnc(CN(CC(N)=O)C(C)C)o1`, for which the “% Inhibition” value is on record as -6% and the Z score is 1.19.
For `CCC[C@H](C)c1nc(C)nn1-c1cccc(C)n1`, in that order: -8% and 1.59.
Take `O=C(NCCc1ccccn1)c1ncoc1C(F)(F)F`: the “% Inhibition” value worked out at 5% and the Z score was -0.67.
For `CCCn1ncc(C(=O)N2CCC[C@H](c3nc(=O)[nH][nH]3)C2)c1C1CC1`, in that order: 0% and 0.06.
As for `CC(C)Oc1ccc2nnc(CCC(=O)Nc3nncs3)n2n1`, the “% Inhibition” value is on record as -14% and the Z score is on record as 1.77.
Turning to `Cc1ccc(Nc2ccn(-c3nc(-c4ccccc4)sc3-c3ccccc3)c(=O)n2)cc1`, the “% Inhibition” value was -11% and the Z score was 1.21.
In the case of `CCOC(=O)C(C)(C)N(C)Cc1ccccc1C#N`, the “% Inhibition” value is -5% and the Z score was 0.46.
The like results for `Cc1noc(C)c1CO[C@H]1COCC[C@@H]1NC(=O)C1CCC1` were, in that order, -15% and 2.87.
With `COc1cccc([C@H](C)NC(=O)C2CCN(c3cc(-c4cccc(C)c4)ncn3)CC2)c1`, the “% Inhibition” value was -10% and the Z score was determined as 1.61.
Take `COC1(C)CCN(S(=O)(=O)c2cccnc2C#N)CC1`: the “% Inhibition” value was 8% and the Z score is -0.92.
Turning to `COc1ccc([C@H]2OCC[C@@H]2NC(=O)Nc2ccc(OC)c3cccnc23)cn1`, the “% Inhibition” value was -5% and the Z score worked out at 0.76.
On to `O=C(COc1ccccc1O)N1CCn2cncc2C1`, for which the “% Inhibition” value is reported as -16% and the Z score worked out at 1.59.
Consider `CCc1oc(C(=O)N2CCCNCC2)cc1C`, for which the “% Inhibition” value is on record as -9% and the Z score was 0.96.
The like results for `CCCN(Cc1nc(C(C)(C)C)no1)S(=O)(=O)N1CCCCC1` were, in that order, -13% and 1.61.
As to `CC[C@H](CNC(=O)c1cnc2ccccn2c1=O)Cc1ccccc1`, the “% Inhibition” value is -14% and the Z score is 2.87.
Regarding `O=C(NCc1ccccc1)NC[C@H](c1ccc(F)cc1)c1c[nH]c2ccccc12`, the “% Inhibition” value is listed as -5% and the Z score is 0.87.
For `N#Cc1cn[nH]c1NC(=O)C(=O)NC1Cc2ccccc2C1`, in that order: -11% and 1.64.
Consider `Cc1nc(C(=O)Nc2[nH]c(=O)ncc2F)c(-c2ccccc2)o1`, for which the “% Inhibition” value worked out at 80% and the Z score was -7.61.
On to `Cn1ccc2c(-c3cc(N)nc(N4CCCC4)n3)ccnc21`, for which the “% Inhibition” value is on record as 11% and the Z score is recorded as -1.46.
As for `Cc1nc(-c2ccc(S(=O)(=O)N3CCCCC3)cc2)cs1`, the “% Inhibition” value is reported as -10% and the Z score is given as 1.18.
The like results for `COc1ccc(CN2Cc3nc(C)[nH]c(=O)c3C2)c(C)c1C` were, in that order, 3% and -0.51.
For `Cc1cc(-c2cccc(C(=O)N[C@H]3CCCNC3=O)c2)ccc1Cl`, in that order: -9% and 1.77.
On to `CCc1ccc(CN2CC(O)(CC#N)C2)cc1`, for which the “% Inhibition” value turned out to be 8% and the Z score is recorded as -1.45.
Regarding `O=C1NC(=O)C2(CCCC2CNC(=O)c2ccncc2Br)N1` (configuration not stated), the “% Inhibition” value is listed as -19% and the Z score came to 3.53.
For `Cc1cc(C)nc(-n2cnc3ccccc32)n1`, in that order: -1% and 0.21.
As for `CC(C)CCn1c(=O)c2ccccc2n(CC(=O)N(C)c2cccc(Cl)c2)c1=O`, the “% Inhibition” value is on record as 6% and the Z score was -0.88.
The like results for `O=C(Cc1cccnc1)N[C@H]1CC(=O)N(Cc2cccc(F)c2)C1` were, in that order, -9% and 1.76.
The like results for `COc1ccc(NC(=O)C2CCC(Cn3cnnn3)CC2)cc1Cl` (configuration not stated) were, in that order, -14% and 1.76.
Turning to `Fc1cnc(N2CCOCC2)nc1N1CCOCC1`, the “% Inhibition” value is -8% and the Z score was determined as 1.41.
For `COc1ccc(CN2C[C@H]3CN(S(C)(=O)=O)CCN3C2=O)cc1`, in that order: -6% and 0.91.
Turning to `Cc1ccc(S(=O)(=O)c2ncccc2CNCCCO)cc1`, the “% Inhibition” value was determined as 2% and the Z score is reported as -0.19.
The like results for `c1ccc(COCc2n[nH]c3c2CN(Cc2cnn4cccnc24)CC3)cc1` were, in that order, -10% and 1.85.
For `N[C@H]1CCN(C(=O)NCc2ccc(Cl)cc2Cl)C1`, the “% Inhibition” value is recorded as -10% and the Z score turned out to be 0.95.
On to `COc1ccnc(N2CC[C@@H](Oc3ccncc3)C2)n1`, for which the “% Inhibition” value is on record as -7% and the Z score was 0.8.
For `CC(CC(=O)N(CC(=O)N1c2ccccc2-n2cccc2C1c1cccc(Cl)c1)C1CC1)CC(C)(C)C` (configuration not stated), in that order: -5% and 1.02.
For `Cc1cc(C(=O)N(C)[C@@H](C)c2nccs2)nc(C)n1`, in that order: 1% and -0.21.
`Cc1ocnc1C(=O)N1CCC(C(=O)N2CCCC2)CC1`: the “% Inhibition” value is listed as -19% and the Z score is 2.66.
For the compound `C[C@H]1CN(CC(=O)Nc2nc3ccc(F)cc3s2)CCO1`, the “% Inhibition” value is -10% and the Z score is given as 1.58.
The like results for `COc1cc(C(=O)N2C[C@]3(C)C[C@H]2CC(C)(C)C3)ccc1OC1CCN(C(C)=O)CC1` were, in that order, -12% and 1.14.
Consider `CCNC(=O)N1CCN(c2nc(C3CC3)nc3c2cnn3-c2ccc(OC)cc2)CC1`, for which the “% Inhibition” value is -8% and the Z score is 1.03.
With `Cc1noc([C@@H]2CCCCCN2C(=O)COc2ccccc2)n1`, the “% Inhibition” value is -6% and the Z score came to 1.24.
For `CC1CN(C(=O)c2cn(Cc3ccccc3)nc2-c2ccccc2)C1`, in that order: 1% and -0.11.
The like results for `Cc1ccccc1OC[C@H](O)C(=O)N1CCC2(CC1)C(=O)N(C)C(=O)N2C` were, in that order, 0% and 0.05.
For `Cc1cc(CNC(=O)C(=O)NCC(F)(F)F)c(C)o1`, in that order: 8% and -1.04.
Turning to `CCn1cc(Br)cc1C(=O)NCC1(N2CCCCC2)CCN(C)CC1`, the “% Inhibition” value is 2% and the Z score is -0.35.
`O=C1N(CC2CCCCC2)CCC[C@@]12CCN(Cc1ccncc1)C2`: the “% Inhibition” value is -15% and the Z score turned out to be 1.32.
As for `O=C(N[C@H]1C[C@@](CO)(c2ccccc2)C1)c1cccc(C#CCO)c1`, the “% Inhibition” value is on record as -6% and the Z score is given as 0.67.
For `COCCNC(=O)c1cnc(-c2cc(OC)c(OC)c(OC)c2)nc1N(C)C1CCCCC1`, in that order: -1% and 0.23.
Consider `C[C@H]1Cc2ccccc2N1CCNc1nc2ccccc2o1`, for which the “% Inhibition” value is reported as -6% and the Z score is listed as 0.82.
For `COc1ccc(C)cc1S(=O)(=O)C1CS(=O)(=O)CC1NCCCc1ccccc1` (configuration not stated), in that order: -1% and 0.15.
With `Cn1cc(C(=O)N[C@H]2CC3(CCCCC3)Oc3ccccc32)ccc1=O`, the “% Inhibition” value is -5% and the Z score came to 0.8.
The like results for `COc1ccc2c(=O)c(C(=O)c3ccncc3)cn(CC(=O)NCc3ccccc3Cl)c2c1` were, in that order, -14% and 1.8.
Consider `O=C(NCc1ccccn1)c1cc(-c2cccc3ccccc23)[nH]n1`, for which the “% Inhibition” value is given as 31% and the Z score is -3.56.
In the case of `O=C1OCCN1CCOc1cc(F)ccc1F`, the “% Inhibition” value is given as 1% and the Z score was -0.12.
The like results for `N#CCCN(Cc1cnns1)CC1CC1` were, in that order, -20% and 2.85.
Consider `COc1ccc2c(c1)[C@@H](NCCN(C)C)CCCO2`, for which the “% Inhibition” value is -12% and the Z score amounted to 1.36.
The like results for `Cc1cccc(OCC(=O)Nc2ccc3c(c2)C(=O)N(C)c2ccccc2O3)c1` were, in that order, -8% and 1.58.
For the compound `CCCN(CCC)S(=O)(=O)NCc1nc2c([nH]1)CCCC2`, the “% Inhibition” value was 15% and the Z score was -1.96.
Turning to `CCc1nsc(N2C[C@H](c3cnn(C)c3)C(C)(C)C2)n1`, the “% Inhibition” value was found to be 1% and the Z score is on record as -0.14.
For `CCCN(CC#Cc1ccccc1)Cc1ccc(O)c(C(=O)O)c1`, in that order: -14% and 2.1.

For the origin of these results see ChEMBL document CHEMBL4888484, “Replenishing the malaria drug discovery pipeline: Screening and hit evaluation of the MMV Hit Generation Library 1 (HGL1) against asexual blood stage Plasmodium falciparum ,using a nano luciferase reporter read-out” (2022).
